The campaign covered roughly 39,000 compounds. About 220 (0.56%) showed activity. The list shows a part of the results.
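Note: static incubation at 37 °C against the wild-type strain, values averaged over two biological replicates.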

This experiment deals with Escherichia coli K-12 BW25113. Put plainly: relative growth (OD600 normalised to plate interquartile mean) (fraction); higher = less growth inhibition, active = 0.2 or less. Conditions: 50 µM; LB; incubation time: overnight (16-24 h).
With `COc1cccc(S(=O)(=O)N(C)C[C@@H]2Oc3ncc(C#CCN(C)C)cc3C(=O)N([C@H](C)CO)C[C@@H]2C)c1`, the relative growth is inactive: 1.02.

With `Cc1noc(C)c1S(=O)(=O)Nc1ccc2c(c1)CC(=O)N([C@@H](C)CO)C[C@@H](C)[C@@H](CN(C)S(=O)(=O)c1cccs1)O2`, the relative growth is inactive: 1.02.

Consider `COc1ccc([Si](C)(C)[C@H]2[C@H](CCn3cc([C@H](O)c4ccccc4)nn3)O[C@@]3(C(=O)N(Cc4cccc(N5C(=O)c6cccc7cccc5c67)c4)c4ccccc43)[C@@H]2C)cc1`, for which the relative growth was inactive: 1.01.

Regarding `COCC#Cc1cnc2c(c1)C(=O)N([C@@H](C)CO)C[C@@H](C)[C@H](CN(C)C(=O)c1cnccn1)O2`, the relative growth is inactive: 1.01.

Take `C[C@@H]1CCCCO[C@H](CN(C)C(=O)C2CCCCC2)[C@H](C)CN([C@H](C)CO)C(=O)c2cc(NS(=O)(=O)c3ccccc3)ccc2O1`: the relative growth was inactive: 1.04.

On to `C[C@H](CO)N1C[C@H](C)[C@@H](CN(C)CC2CCCCC2)OCCCC[C@H](C)Oc2ccc(NC(=O)CCC(F)(F)F)cc2C1=O`, for which the relative growth is inactive: 0.986.

Regarding `C[C@H]1CN([C@@H](C)CO)C(=O)c2cccc(NC(=O)CCCCCC(=O)Nc3ccccc3N)c2O[C@H]1CN(C)CC1CCCCC1`, the relative growth was inactive: 0.995.

As to `COc1ccc(NC(=O)N(C)C[C@@H]2Oc3c(NC(=O)Nc4cccc5ccccc45)cccc3C(=O)N([C@@H](C)CO)C[C@H]2C)cc1`, the relative growth is inactive: 0.987.

`C[C@@H]1CN([C@@H](C)CO)C(=O)c2cc(NC(=O)C3CCCCC3)ccc2O[C@@H](C)CCCCO[C@H]1CN(C)C(=O)c1ccccc1`: the relative growth is inactive: 0.972.

For `O=S(=O)(c1cccc2cnccc12)N1CCCNCC1`, the relative growth is inactive: 1.17.

Take `CC(=O)OC[C@H]1O[C@@H](NC(N)=O)[C@H](OC(C)=O)[C@@H](OC(C)=O)[C@@H]1OC(C)=O`: the relative growth is inactive: 0.997.

For `O=C([C@H]1CCCCN1)N1CCCC1`, the relative growth is inactive: 1.

With `CN1CCC(=C2c3ccccc3CC(=O)c3sccc32)CC1.O=C(O)C=CC(=O)O`, the relative growth was inactive: 1.03.

In the case of `C[C@@H]1CN([C@H](C)CO)S(=O)(=O)c2ccc(C#CC(C)(C)O)cc2O[C@H]1CN(C)Cc1ccccc1`, the relative growth is inactive: 1.02.

On to `Cc1noc(C)c1S(=O)(=O)Nc1ccc2c(c1)C(=O)N([C@H](C)CO)C[C@H](C)[C@H](CN(C)C(=O)Nc1ccc3c(c1)OCO3)O2`, for which the relative growth was inactive: 0.993.

`C[C@@H]1CCCCO[C@H](CN(C)C(=O)Nc2ccc(F)cc2)[C@@H](C)CN([C@@H](C)CO)C(=O)c2cc(NC(=O)NC3CCCCC3)ccc2O1`: the relative growth was inactive: 1.01.

Regarding `COc1ccc(NC(=O)Nc2ccc3c(c2)[C@H]2C[C@H](CC(=O)NCc4ccccn4)O[C@H](CO)[C@H]2O3)cc1`, the relative growth is inactive: 0.995.

For `C[C@@H]1CN([C@H](C)CO)C(=O)c2cc(NS(=O)(=O)c3ccc(F)cc3)ccc2O[C@@H](C)CCCCO[C@@H]1CN(C)C(=O)CCC(F)(F)F`, the relative growth was inactive: 0.988.

For `CC(=O)C=C(O)CCC(=O)O`, the relative growth was inactive: 0.91.

`CS(=O)(=O)N1C[C@@H](O)COC[C@@H]2O[C@H](CC(=O)NCc3ccccc3)CC[C@H]21`: the relative growth was inactive: 0.998.

`COc1ccc(S(=O)(=O)Nc2cccc3c2O[C@H](CN(C)S(=O)(=O)c2ccc(C)cc2)[C@@H](C)CN([C@@H](C)CO)C3=O)cc1`: the relative growth is inactive: 0.967.

For `C[C@H]1COC(=O)[C@@H](NC(=O)OCC2c3ccccc3-c3ccccc32)CC/C=C/C[C@H](CC(=O)N(CCOC(=O)NCCCCCC(=O)NO)Cc2ccccc2)C(=O)N1`, the relative growth was inactive: 1.07.

Consider `CC(=O)NCC(=O)NS(=O)(=O)c1ccccc1`, for which the relative growth is inactive: 1.

For `O=C(C[C@H]1C[C@@H]2c3cc(NC(=O)C4CCOCC4)ccc3O[C@@H]2[C@H](CO)O1)NCc1ccc(Cl)cc1`, the relative growth was inactive: 0.986.

As to `C[C@@H]1CN([C@H](C)CO)S(=O)(=O)c2ccc(C#Cc3ccccc3)cc2O[C@@H]1CN(C)C(=O)Cc1ccccn1`, the relative growth was inactive: 0.977.

For the molecule `C[C@@H]1CN([C@H](C)CO)C(=O)c2cc(C#Cc3ccccc3F)cnc2O[C@H]1CN(C)C(=O)Cc1ccncc1`, the relative growth was inactive: 0.975.

On to `Cc1noc(C)c1S(=O)(=O)Nc1ccc2c(c1)C(=O)N([C@@H](C)CO)C[C@H](C)[C@H](CN(C)C(=O)Nc1ccc(C(F)(F)F)cc1)OCCCC[C@H](C)O2`, for which the relative growth was inactive: 0.98.

In the case of `COc1ccc([C@@H]([C@H](Cc2ccccc2)OC(C)=O)N2C[C@@H](NC(=O)C(Cl)(Cl)Cl)[C@@H]3[C@H]([C@@H]2Cc2ccccc2)N(C)O[C@H]3c2ccccc2)cc1`, the relative growth was inactive: 1.02.

For the molecule `COc1ccc(NC(=O)N(C)C[C@H]2OCCCC[C@H](C)Oc3ccc(NC(=O)NC4CCCCC4)cc3C(=O)N([C@@H](C)CO)C[C@@H]2C)cc1`, the relative growth was inactive: 1.05.

With `Cc1noc(C)c1NC(=O)N(C)C[C@H]1OCCCC[C@H](C)Oc2ccc(NC(=O)NC3CCCCC3)cc2C(=O)N([C@@H](C)CO)C[C@@H]1C`, the relative growth is inactive: 0.994.

As to `O=C(C[C@H]1CC[C@H]2[C@@H](COC[C@H](O)CN2S(=O)(=O)c2ccccc2)O1)NCc1ccc2c(c1)OCO2`, the relative growth is inactive: 0.973.

As for `COc1c(C)cnc2c1c(=O)n(CC#N)c(=O)n2C`, the relative growth is inactive: 0.985.

`C[C@@H]1CN([C@@H](C)CO)C(=O)CCCn2nncc2CO[C@@H]1CN(C)C(=O)Nc1cccc(Oc2ccccn2)c1`: the relative growth is inactive: 1.02.

`CCc1nn(CCCN2CCN(c3cccc(Cl)c3)CC2)c(=O)n1CCOc1ccccc1`: the relative growth is inactive: 1.2.

Consider `C[C@H]1CCCCO[C@H](CN(C)C(=O)Nc2ccc3c(c2)OCO3)[C@@H](C)CN([C@@H](C)CO)C(=O)c2cc(NC(=O)Nc3cccc4ccccc34)ccc2O1`, for which the relative growth was inactive: 1.

Regarding `CN(C)Cc1ccc(O)c(CN(C)C)n1`, the relative growth is inactive: 0.979.

Regarding `C[C@@H]1CN([C@H](C)CO)S(=O)(=O)c2ccc(-c3cccc(C#N)c3)cc2O[C@H]1CN(C)C(=O)c1cccnc1`, the relative growth is inactive: 0.997.

For `C[C@@H]1CN([C@H](C)CO)C(=O)c2cc(NC(=O)Nc3ccccc3)ccc2O[C@@H]1CN(C)S(=O)(=O)c1cn(C)cn1`, the relative growth is inactive: 1.01.

For `COc1ccc(S(=O)(=O)N(C)C[C@@H]2Oc3ccc(N(C)C)cc3CC(=O)N([C@@H](C)CO)C[C@@H]2C)cc1`, the relative growth is inactive: 0.97.

For the molecule `Cc1ccc(S(=O)(=O)Nc2ccc3c(c2)C(=O)N([C@@H](C)CO)C[C@H](C)[C@@H](CN(C)S(=O)(=O)c2ccc(C)cc2)OCCCC[C@H](C)O3)cc1`, the relative growth is inactive: 1.03.

Regarding `C[C@H](CO)N1C[C@H](C)[C@@H](CN(C)C(=O)CCCN(C)C)OCCCC[C@H](C)Oc2ccc(NC(=O)Nc3ccc(F)cc3)cc2C1=O`, the relative growth is inactive: 0.989.

As to `Cc1noc(C)c1NC(=O)N(C)C[C@@H]1OCCCC[C@@H](C)Oc2ccc(NS(=O)(=O)c3cccs3)cc2C(=O)N([C@@H](C)CO)C[C@H]1C`, the relative growth was inactive: 1.01.

In the case of `C[C@H]1CCCCO[C@H](CN(C)C(=O)C2CCCCC2)[C@@H](C)CN([C@@H](C)CO)C(=O)c2cc(NC(=O)NC3CCCCC3)ccc2O1`, the relative growth is inactive: 1.02.

With `C[C@H]1CN([C@@H](C)CO)C(=O)Cc2cc(NC(=O)Nc3cccc4c3CCCC4)ccc2O[C@H]1CN(C)S(=O)(=O)c1ccc(Oc2ccccc2)cc1`, the relative growth was inactive: 1.03.

As for `COc1ccc(NC(=O)Nc2ccc3c(c2)C(=O)N([C@H](C)CO)C[C@H](C)[C@H](CN(C)Cc2ccccc2)OCCCC[C@@H](C)O3)cc1`, the relative growth was inactive: 0.972.

Take `O=c1ccc(-c2ccncc2)n[nH]1`: the relative growth is inactive: 0.957.

Regarding `[N-]=[N+]=Nc1ccccc1C[C@@]1(C(=O)NCc2ccccc2)N=C(c2ccc(OCCCO)cc2)O[C@@H]1c1ccccc1`, the relative growth is inactive: 1.01.

On to `CCCNC(=O)N1C[C@]2(CN(C2)S(=O)(=O)c2cccc(c2)OC)c2c(n(c3cc(ccc23)OC)C)[C@@H]1CO`, for which the relative growth is inactive: 1.01.

Turning to `COc1ccc(NC(=O)Nc2cccc3c2O[C@H](CN(C)C(=O)Nc2ccc(C(F)(F)F)cc2)[C@@H](C)CN([C@H](C)CO)C3=O)cc1`, the relative growth is inactive: 0.837.

Turning to `C[C@H](CO)N1C[C@H](C)[C@@H](CN(C)Cc2ccc3c(c2)OCO3)Oc2ccc(NC(=O)CCN3CCOCC3)cc2C1=O`, the relative growth is inactive: 0.99.

As to `CCCNC(=O)N(C)C[C@H]1Oc2cc(C#Cc3ccccn3)ccc2S(=O)(=O)N([C@@H](C)CO)C[C@H]1C`, the relative growth is inactive: 1.05.

Turning to `N#CC(=Cc1ccc(O)c(O)c1)C(N)=O`, the relative growth was inactive: 0.991.

For the molecule `COc1ccc(S(=O)(=O)N(C)C[C@@H]2OCCCC[C@H](C)Oc3ccc(NC(=O)c4ccccc4)cc3C(=O)N([C@H](C)CO)C[C@@H]2C)cc1`, the relative growth is inactive: 1.03.

Take `C[C@H]1CN([C@@H](C)CO)C(=O)c2cccc(NC(=O)C3CC3)c2O[C@H]1CN(C)S(=O)(=O)c1ccc(Cl)cc1`: the relative growth was inactive: 0.985.

`Cc1cn([C@H]2CC[C@@H](CO)O2)c(=O)[nH]c1=O`: the relative growth was inactive: 0.531.

For `COc1ccc(NC(=O)N(C)C[C@@H]2Oc3c(NS(=O)(=O)c4cn(C)cn4)cccc3C(=O)N([C@@H](C)CO)C[C@H]2C)cc1`, the relative growth was inactive: 0.991.

As for `C[C@@H]1CN([C@@H](C)CO)C(=O)Cc2cc(NC(=O)Cn3cnnn3)ccc2O[C@@H]1CN(C)S(=O)(=O)c1ccc(Cl)cc1`, the relative growth was inactive: 0.971.

On to `COc1ccccc1OCCNCC(O)COc1cccc2[nH]c3ccccc3c12.O=P(O)(O)O` (stereo not given), for which the relative growth is inactive: 0.531.

Turning to `C[C@H]1CN([C@@H](C)CO)C(=O)c2cccc(NC(=O)C3CC3)c2O[C@@H]1CN(C)S(=O)(=O)c1ccc(F)cc1`, the relative growth was inactive: 0.99.

On to `C[C@@H]1CN([C@H](C)CO)C(=O)CCCn2cc(nn2)CO[C@H]1CN(C)C(=O)Nc1ccc(C(C)(C)C)cc1`, for which the relative growth was inactive: 0.984.

For the origin of these results see the supplement of paper PMC9446081.
